Binding data for three substances are collected here from paper PMC11595209.

Sequences of proteins named here, by UniProt entry; tags and fusion partners are left off.
UniProt Q00271: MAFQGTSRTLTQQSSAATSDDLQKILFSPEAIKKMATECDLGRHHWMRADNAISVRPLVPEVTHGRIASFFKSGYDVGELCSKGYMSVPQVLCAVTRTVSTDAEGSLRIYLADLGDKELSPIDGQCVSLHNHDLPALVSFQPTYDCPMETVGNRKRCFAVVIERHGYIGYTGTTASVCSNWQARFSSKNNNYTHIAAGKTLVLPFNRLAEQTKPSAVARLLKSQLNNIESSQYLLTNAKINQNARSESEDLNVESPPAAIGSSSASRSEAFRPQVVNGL
UniProt P03545: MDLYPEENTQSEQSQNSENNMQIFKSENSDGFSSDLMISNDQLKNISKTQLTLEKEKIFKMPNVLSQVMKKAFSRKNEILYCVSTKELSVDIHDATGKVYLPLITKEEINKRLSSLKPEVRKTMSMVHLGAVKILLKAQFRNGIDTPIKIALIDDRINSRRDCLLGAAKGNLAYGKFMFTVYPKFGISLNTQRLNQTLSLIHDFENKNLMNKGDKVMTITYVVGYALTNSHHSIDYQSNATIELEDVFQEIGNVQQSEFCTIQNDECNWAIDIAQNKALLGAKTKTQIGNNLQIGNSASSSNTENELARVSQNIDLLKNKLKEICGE
UniProt A0A1S3YFP6: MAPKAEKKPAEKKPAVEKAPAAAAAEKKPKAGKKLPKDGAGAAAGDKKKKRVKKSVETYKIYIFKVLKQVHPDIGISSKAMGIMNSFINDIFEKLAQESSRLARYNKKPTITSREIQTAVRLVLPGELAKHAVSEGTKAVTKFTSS

Results are given in words; binding and its absence hold for the method and conditions named. Binding seen in cells or lysates may run through a third protein. Some binding calls cover weakened binding; strength is not graded here. For part of these data: Sequences can lack the tags named with a protein.

Common to all, as to assay: split reporter; BiFC with NtGFP and CtGFP fragments of EGFP fused at the N- or C-terminus of each protein; co-agroinfiltration of N. benthamiana leaves (OD600 0.4, mixed in equal proportions); confocal microscopy
In assay [1] the target is cucumber mosaic virus (CMV) movement protein, BiFC fusion (cucumber mosaic virus) (UniProt Q00271).
For assay [2], the target named is T1, N. tabacum peroxidase, BiFC fusion (N. tabacum).
T1 sequence: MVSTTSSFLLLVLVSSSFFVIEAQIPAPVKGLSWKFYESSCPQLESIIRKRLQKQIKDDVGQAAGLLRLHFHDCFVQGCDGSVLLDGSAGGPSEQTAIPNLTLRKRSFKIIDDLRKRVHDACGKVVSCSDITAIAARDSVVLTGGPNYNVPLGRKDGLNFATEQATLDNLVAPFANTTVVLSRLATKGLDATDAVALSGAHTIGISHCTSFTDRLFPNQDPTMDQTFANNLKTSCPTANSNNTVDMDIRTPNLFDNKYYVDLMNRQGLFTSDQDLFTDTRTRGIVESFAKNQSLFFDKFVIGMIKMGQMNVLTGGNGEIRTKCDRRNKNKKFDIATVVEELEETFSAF

For assay [3], the target named is N. tabacum actin, BiFC fusion (N. tabacum).
Assay [4] addresses T2, N. tabacum 14-3-3A protein, BiFC fusion (N. tabacum).
T2 sequence: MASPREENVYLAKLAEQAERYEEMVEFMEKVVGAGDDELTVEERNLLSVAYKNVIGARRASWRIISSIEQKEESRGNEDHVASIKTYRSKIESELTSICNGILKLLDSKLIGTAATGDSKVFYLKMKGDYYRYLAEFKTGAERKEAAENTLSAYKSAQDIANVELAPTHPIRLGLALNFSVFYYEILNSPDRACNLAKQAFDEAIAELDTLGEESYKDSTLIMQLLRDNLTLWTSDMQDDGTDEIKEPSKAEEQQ

Assay [5] deals with cauliflower mosaic virus (CaMV) movement protein, BiFC fusion (cauliflower mosaic virus) (UniProt P03545).

Consider “N. tabacum histone 2B-like, BiFC fusion (from UniProt A0A1S3YFP6 1-146)”, for which the binding result in assay [1], in assay [2], in assay [3], in assay [4] and in assay [5] was “binds” in each case.

Turning to “N. tabacum actin, BiFC fusion (from UniProt A0AC58SQG1 1-377)”, the binding entry in assay [2] and in assay [4] was “binds” each time.

In the case of “N. tabacum peroxidase, BiFC fusion (from UniProt A0A1S4BIW4 1-348)”, the binding entry in assay [1] and in assay [5] was “no binding” each time.
